The values below come from PubChem BioAssay AID1745853 (National Center for Advancing Translational Sciences (NCATS), 2022).

Holding throughout (test): Primary Screen for Target Class Profiling of Small Molecule Inhibitors of Methyltransferases
Experiment [1] concerns the target Glycine N-methyltransferase (Homo sapiens) (UniProt Q14749). The conditions noted are these: purified enzyme, MTase-Glo SAH luminescence; measured here: GNMT inhibition; at 40 µM; stronger effect = lower value. In short, it runs like this: (§1)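 Each enzyme was assayed with SAM and its substrate. SAH formation detected by MTase-Glo luminescence; single-point 40 uM screen[…].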

The target in experiment [2] is Guanidinoacetate N-methyltransferase (Homo sapiens) (UniProt Q14353). The conditions noted are these: purified enzyme, MTase-Glo SAH luminescence; measured here: GAMT inhibition; at 40 µM; stronger effect = lower value. In short, it runs like this:
as §1

The target in experiment [3] is Histamine N-methyltransferase (Homo sapiens) (UniProt P50135). The conditions noted are these: purified enzyme, MTase-Glo SAH luminescence; measured here: HNMT inhibition; at 40 µM; stronger effect = lower value. In short, it runs like this:
as §1

Experiment [4] concerns the target Nicotinamide N-methyltransferase (Homo sapiens) (UniProt P40261). The settings on record: purified enzyme, MTase-Glo SAH luminescence; measured here: NNMT inhibition; at 40 µM; stronger effect = lower value. In short, it runs like this:
as §1

In experiment [5] the target is Phenylethanolamine N-methyltransferase (Homo sapiens) (UniProt P11086). The conditions noted are these: purified enzyme, MTase-Glo SAH luminescence; measured here: PNMT inhibition; at 40 µM; stronger effect = lower value. In short, it runs like this: as §1

Molecules are shown by their SMILES. This is one part of the list. These are further read-outs of the screen, such as a control signal, another cell line or another target. No call is given for them.
On the % scale 0 is the no-effect control and ±100 the full control effect.

`Cn1c(=O)c2ccc(C(=O)NC3CCCC3)cc2n2c(=O)n(CC(=O)NCc3ccc(Cl)cc3)nc12`: the activity change, negative = inhibition in experiment [1] is -0.12%; in experiment [2] it was 0.565%; in experiment [3] it was -3.32%; in experiment [4], -1.4%; in experiment [5] it was -3.21%.
In the same order, the values of `C[S+](=O)([O-])N1CCC2(CC1)C(=O)NN=C2c1ccccn1` are -8.06%, -6.42%, -2.79%, -14.4% and -4.44%.
On the same counts, the results for `CCC(C)NC(=O)c1ccc2c(=O)n(C(C)C)c3nn(C)c(=O)n3c2c1` (configuration not stated) are 5.77%, 0%, 7.38%, 0.54% and 2.98%.
With `Cc1ccc(NC(=O)CSc2nnc3n(CC(C)C)c(=O)c4ccccc4n23)cc1C`, the activity change, negative = inhibition in experiment [1] was -4.01%; in experiment [2] it was -10.9%; in experiment [3], 7.45%; in experiment [4] it was -7.7%; in experiment [5], -3.72%.
Regarding `CCCn1c(C)cnc1CC1CCCN(S(=O)(=O)c2cc(OC)ccc2OC)C1` (configuration not stated), the activity change, negative = inhibition was -6.08% in experiment [1]; 0% in experiment [2]; -1.28% in experiment [3]; -9.4% in experiment [4]; -1.65% in experiment [5].
For `Cc1cc(=O)n(CC(=O)NCc2ccccc2Cl)c(N(C)Cc2ccccc2)n1`, the activity change, negative = inhibition in experiment [1] is -6.55%; in experiment [2], -5.96%; in experiment [3], -1.91%; in experiment [4], -8.86%; in experiment [5] it was -3.17%.
In the case of `CCOC(=O)c1cc2n(n1)CC(C)(C(=O)NC1CCCC1)N(Cc1ccc(OCC)cc1)C2=O` (configuration not stated), the activity change, negative = inhibition in experiment [1] is -0.738%; in experiment [2], 0%; in experiment [3], 2.94%; in experiment [4], 3.47%; in experiment [5] it was -1.61%.
On the same counts, the results for `CN1C[C@@H](NC(=O)CC(C)(C)CC(=O)O)C[C@H]1c1nc(-c2ccc3c(c2)OCO3)no1` are -1.21%, -5%, -2.71%, -6.59% and -0.058%.
In the same order, the values of `COc1ccc(CCNC(=O)Cn2ccc3cc(S(=O)(=O)N4CCCC4)ccc32)cc1OC` are -3.74%, 0%, -1.4%, -4.26% and -1.1%.
On the same counts, the results for `CC(C)CCN1C(=O)c2cc3occc3n2CC1(C)C(=O)NC1CCC(C)CC1` (configuration not stated) are -2.43%, 3.46%, 1.44%, 1.74% and -4.46%.
For the molecule `CCCCc1nc(Cl)c(CO)n1Cc1ccc(-c2ccccc2-c2nnn[nH]2)cc1`, the activity change, negative = inhibition is -6.76% in experiment [1] and 10.3% in experiment [3].
Regarding `CC(=O)Nc1c2n(c3ccccc13)CC(C)(C(=O)NC1CCCCC1)N(Cc1ccccc1)C2=O` (configuration not stated), the activity change, negative = inhibition in experiment [1] was -0.691%; in experiment [2], 2%; in experiment [3], 3.67%; in experiment [4], 4.54%; in experiment [5], 1.75%.
For `Cc1ccc(NS(=O)(=O)c2cc3c(cc2C)n(C)c(=O)n3C)cc1C`, the activity change, negative = inhibition in experiment [1] is 2.49%; in experiment [2], 0%; in experiment [3], -1.8%; in experiment [4], -3.84%; in experiment [5] it was 2.6%.
On the same counts, the results for `CCCN(CCC)C(=O)C(CCC(=O)OCCCN1CCN(CCOC(=O)Cc2c(C)n(C(=O)c3ccc(Cl)cc3)c3ccc(OC)cc23)CC1)NC(=O)c1ccccc1` (configuration not stated) are 0.478%, 1.06%, 11.8%, -13.5% and 6.49%.
`O=C1N(Cc2ccc(F)c(F)c2)CCCC12CCN(c1nc3ccccc3o1)C2` (configuration not stated): the activity change, negative = inhibition was -6.91% in experiment [1]; -10.9% in experiment [2]; -15.9% in experiment [3]; -12.2% in experiment [4]; -8.58% in experiment [5].
For `COc1ccc(-c2nc3ccc(C4=NNC(=O)CC4C)cc3[nH]2)cc1` (configuration not stated), the activity change, negative = inhibition was -45.8% in experiment [1]; -9.68% in experiment [2]; -12.4% in experiment [3]; -32.4% in experiment [4]; -14.8% in experiment [5].
In the same order, the values of `COc1ccccc1-c1ccc(-c2cn(C(=O)N3CCCCC3Cc3ccccc3)nn2)cc1` (configuration not stated) are 3.91%, -20.3%, 11.9%, -21.8% and -0.52%.
Regarding `COc1ccc(CNC(=O)[C@@H]2CCC[C@@H](NC(=O)C3CC3)CN(C)C(=O)C2)cc1`, the activity change, negative = inhibition in experiment [1] is -5.83%; in experiment [2] it was -4.75%; in experiment [3], -1.93%; in experiment [4] it was -9.49%; in experiment [5], -4.44%.
Regarding `Cc1nc2n(c(=O)c1CCN1CCC(c3noc4cc(F)ccc34)CC1)CCCC2O` (configuration not stated), the activity change, negative = inhibition in experiment [1] was 5.36%; in experiment [2] it was 9.44%; in experiment [3], 9.19%; in experiment [4], -15.5%; in experiment [5] it was -4.28%.
On the same counts, the results for `C=CCn1c(=O)c2cnc(Nc3ccc(N4CCN(C)CC4)cc3)nc2n1-c1cccc(C(C)(C)O)n1` are -22.3%, -11.3%, -63%, -24.1% and -16.3%.
Take `Cc1ccc(CNS(=O)(=O)c2ccc3[nH]c(=O)[nH]c3c2)cc1`: the activity change, negative = inhibition in experiment [1] was 1.15%; in experiment [2] it was 3.76%; in experiment [3] it was -3.51%; in experiment [4] it was -7.78%; in experiment [5], -8.31%.
On the same counts, the results for `Cn1cnc2c(=O)oc3ccc(S(=O)(=O)NCCc4ccc(Cl)cc4)cc3c21` are -2.73%, 3.89%, -5.5%, -4.79% and -4.63%.
Consider `COc1cccc([C@@H]2CN(C(=O)c3cc(C)oc3C)C[C@H]2C(=O)O)c1OC`, for which the activity change, negative = inhibition in experiment [1] was -5.28%; in experiment [2], -4.4%; in experiment [3], -2.28%; in experiment [4] it was -6.74%; in experiment [5], -5.46%.
Regarding `Oc1ccc(-c2cnc3ccc(NCc4ccco4)nn23)cc1`, the activity change, negative = inhibition in experiment [1] is -44.3%; in experiment [2], -5.62%; in experiment [3], -31.3%; in experiment [4] it was -26.1%; in experiment [5], -7.15%.
On the same counts, the results for `COC(=O)c1ncn2c1C(=O)N(Cc1cccc(C)c1)C(C)(C(=O)NC1CCCCCC1)C2` (configuration not stated) are -10.4%, 2.66%, 0.588%, 2.63% and -1.51%.
On the same counts, the results for `O=S(=O)(c1cccc(F)c1)N1CC[C@@H]2COCCN(Cc3ccccc3)[C@@H]2C1` are -3.88%, 3%, -2.76%, -5.26% and 7.97%.
For the molecule `C=C1C(=O)OC[C@@H]1C/C=C(\C)CC1CC(C)C(=O)O1` (some centres not stated), the activity change, negative = inhibition is -4.02% in experiment [1]; -4.99% in experiment [2]; 1.98% in experiment [3]; -15.6% in experiment [4]; 1.69% in experiment [5].
For `COc1ccc(-n2nc3n(c2=O)CCN(C(=O)c2ccccc2F)C3)cc1`, the activity change, negative = inhibition was -13.5% in experiment [1]; -2.04% in experiment [2]; -5.59% in experiment [3]; -11.3% in experiment [4]; 5.04% in experiment [5].
On to `CC1=CC(=O)CC(C)(C)C1CCC(C)O[C@@H]1O[C@H](CO[C@@H]2OC[C@@H](O)[C@H](O)[C@H]2O)[C@@H](O)[C@H](O)[C@H]1O` (some centres not stated), for which the activity change, negative = inhibition is 0% in experiment [1]; -5.08% in experiment [2]; 0.04% in experiment [3]; -17.3% in experiment [4]; 2.08% in experiment [5].
